Reference: the supplement of paper PMC3334620
In all, about 33,000 sequences were measured (“E-score (-0.5 to 0.5)”: median about -0.01, highest 2% from about 0.26 on). This is one part of the list.

What follows are sequences tested against Ste12 (UniProt P13574) (assay: PBM E-score (8-mer binding enrichment) (E-score (-0.5 to 0.5)); higher = stronger / more preferred TF binding; most listed sequences are background and not binding sites). Details: protein concentration: 200 nM; construct: GST-DNA-binding domain.
Method in brief: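 PURExpress in vitro transcription/translation supplied GST-tagged yeast transcription factors, either full-length or DNA-binding domain. Applied at about 100-200 nM to universal all-10-mer Agilent arrays double-stranded by primer extension, the bound protein was detected with fluorescent anti-GST. E-scores, modified Wilcoxon-Mann-Whitney statistics, were given by the Universal PBM Analysis Suite to ungapped eight-base words pooled with their reverse complements after masliner normalisation.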

Point of comparison: ACTGATAT, “PBM E-score” value 0.0139. Against it:
- AGCCTTGC — lower, -0.0381
- ACTATGTC — lower, -0.194
- ATAGGCTG — lower, -0.00172
- CCCAGACG — lower, -0.176
- CCCCCACC — lower, -0.207
- ATACTCTC — higher, 0.0742
- CACGGGAA — lower, -0.223
- GAGAACCA — higher, 0.0267
- ACTCTGAG — higher, 0.0655
- CGGTCGTC — lower, -0.194
- ACCATGGT — lower, -0.205
- CCCCTTTA — lower, -0.325
- CGGGAAAC — higher, 0.166
- ATACCCCC — higher, 0.0202
- GGCGGAAA — higher, 0.116
- AGGCTCAG — lower, -0.0571
- CCTAGGTA — lower, 0.0058
- ACGCGCCG — lower, -0.014
- AATCCATG — higher, 0.0722
- AGAGGAGC — lower, -0.244
- AACAGTTA — higher, 0.111
- CCGCGAAC — lower, -0.0224
- ACTTCATG — lower, -0.0938
- CACCCGTA — lower, -0.165
- AAATTCAT — higher, 0.0981
- ATCGTCCG — lower, -0.0253
- CCTCATGC — lower, -0.21
- CACCCTGG — lower, -0.0322
- ACAGCCAC — lower, -0.0241
- ATTGCAGA — higher, 0.0943
- CCGTAACC — lower, -0.0242
- AGGGCACT — lower, -0.131
- ATCTCTTG — lower, -0.122
- CTCCCATA — lower, -0.0685
- GCTACGCC — lower, -0.233
- GAGGGAAA — lower, -0.125
- CGATAGTC — lower, -0.186
- CGTGGCAA — lower, -0.0954
- TCATTTAA — higher, 0.0578
- GTACCGAC — lower, -0.124
- AGAACTCT — lower, -0.0638
- AGGCACCG — lower, -0.185
- GAGAGGCA — lower, -0.223
- CCACACCA — higher, 0.0353
- TCTGGTAA — higher, 0.174
- ATGGATAC — lower, -0.00603
- AAACAAAG — higher, 0.233
- AAGTAAAC — higher, 0.0949
- GTCGCCAC — lower, -0.0513
- CCTTCGTA — lower, -0.0727
- CTTTCGGC — higher, 0.0422
- CACATCTG — lower, -0.0216
- AGTACGGG — lower, -0.102
- TAAGCTAA — higher, 0.0672
- AATCGCAA — higher, 0.0922
- CTGTTTAA — higher, 0.22
- ATACCGGC — higher, 0.0847
- GAGTGACC — lower, -0.121
- GGCAATTA — higher, 0.137
- GGATTGGA — lower, 0.00134
- CGACTTAC — lower, -0.212
- AAGGGCAG — lower, -0.0445
- ACAGTAAA — higher, 0.117
- GCGTAACC — lower, -0.0453
- CGCCACCA — lower, -0.00185
- ATGGTTAC — higher, 0.151
- CATATAGC — higher, 0.0249
- CCGTTGAA — higher, 0.0239
- CAGAATCC — lower, -0.0318
- ATCGGCTA — higher, 0.0548
- TATAACGA — lower, -0.0531
- CCCACCTA — higher, 0.155
- ACGAGTGC — lower, -0.151
- ACTAAACC — higher, 0.0959
- AGGTCGAA — higher, 0.145
- AGACGCGC — lower, -0.0705
- CGACCCGA — lower, -0.171
- AAGAATGT — lower, 0.00091
- CCAGGCGG — higher, 0.0621
- GGGTGGCA — lower, -0.0324
- GGTCCCAC — lower, -0.293
- TCCGAGAA — higher, 0.041
- GAATGACA — higher, 0.0695
- AATAGCGT — higher, 0.0141
- CGAGCTCA — higher, 0.0946
- CAGGTAAG — higher, 0.0995
- AGGCGGTA — lower, -0.0148
- GTAAGCGA — lower, -0.222
- CCATAAAC — lower, -0.069
- CATACACG — lower, 0.00503
- CTGCAGGA — higher, 0.101
- CCGTATCA — higher, 0.167
- TTGATAAA — higher, 0.277
- ATAACGGG — lower, -0.105
- ATGAATCA — higher, 0.177
- GACAAGTC — lower, -0.249
- ATTACAAG — higher, 0.082
- CACGGGGA — lower, -0.0574
- GCTAATAC — higher, 0.0435
- CTCTTCCA — lower, -0.174
- ACATTATA — higher, 0.125
- CCCTTTCA — higher, 0.0514
- GTGGCCTA — lower, -0.119
- GGTTACGA — lower, -0.166
- ATGGGGTG — higher, 0.222
- ATTAAGGC — higher, 0.045
- CACTTTAC — higher, 0.143
- CTAATCAA — higher, 0.15
- CGTCTAAC — lower, -0.119
- AGGACGCC — lower, -0.239
- CAGCGAAA — lower, -0.118
- GCCTGGAA — higher, 0.0491
- ACATGTAG — higher, 0.13
- CAAACCAA — higher, 0.205
- ATATAGCA — lower, -0.0255
- ACACGCGG — lower, -0.0112
- GCTACACC — lower, -0.00127
- AAGATTAC — higher, 0.0371
- ACCTGAGG — lower, -0.204
- GCGATAGA — lower, -0.0219
- ATCGTTGG — lower, -0.0687
- AAGTATCA — higher, 0.112
- ATATGCAC — lower, -0.0918
- AGGTGGTC — lower, -0.125
- GTTACCCA — lower, -0.132
- GATCGGAC — lower, -0.08
- AGCTAACC — lower, -0.247
- ACACAAAT — higher, 0.108
- AAGCATGG — lower, -9e-05
- AACACGAG — lower, -0.0416
- CCGCAGAG — lower, -0.315
- ATGATGCA — higher, 0.0409
- ATTGCATA — higher, 0.0558
- CGATAACA — higher, 0.171
- AAACTGCC — higher, 0.15
- CGTTCAGA — lower, -0.0653
- AGTACAAA — higher, 0.107
- CGGCGATA — higher, 0.0354
- CAACACTG — higher, 0.018
- CGCTACCC — lower, -0.0363
- AGTATCAC — higher, 0.015
- GATCTTCC — lower, -0.152
- AATCACGG — higher, 0.0746
- GTCCAGGA — lower, -0.195
- GCATTTCC — higher, 0.171
- TTCACCAA — higher, 0.0895
- CCGACTAG — lower, 0.0018
- AAATTTAT — higher, 0.263
- CTTAATGA — lower, -0.0221
- AGCGGCAT — higher, 0.132
- GACGATAA — higher, 0.051
- CCCGTCAC — higher, 0.0322
- ATCGATGC — higher, 0.0636
- AGAAGCCA — higher, 0.0744
- ATGAGGAG — lower, -0.258
- GGATTGAC — lower, -0.107
- AGCCGTGC — lower, -0.287
- ACTTAATA — higher, 0.189
- CAAAGCTA — lower, -0.077
- ACGCCAAA — higher, 0.0442
- CCGCGAAA — higher, 0.142
- AGAATCGC — lower, -0.0927
- CACTATGC — lower, -0.0894
- AACACTAC — higher, 0.139
- CGGCACAG — lower, -0.103
- GAGATTTA — higher, 0.0215
- GTCGTACA — lower, -0.151
- ATGCGGAA — higher, 0.107
- CCACACGG — lower, -0.173
- AGCATCCT — lower, -0.126
- AGACATCT — lower, -0.0331
